According to a compilation of properties of binary mixtures (doi:10.1016/j.tca.2013.02.002):
Some of these densities may be calculated back from excess volumes.

Assay: xn = mol fraction of the nth substance listed
Conditions: 101 kPa

CC[NH+](CC)CC.O=S(=O)([O-])O + CS(C)=O
mass density [kg/m3]
Conditions	298.15 K	303.15 K	308.15 K
x1 = 0.011	–	–	1087.3
x2 = 0	1142.9	1141.8	1140.7
x2 = 0.0244	–	1141.1	1140
x2 = 0.0557	1141.3	1140.2	1139
x2 = 0.108	1139.8	1138.7	1137.4
x2 = 0.1556	1138.3	1137.2	1135.8
x2 = 0.199	–	1135.9	1134.3
x2 = 0.2473	1135.4	1134.2	–
x2 = 0.3279	1132.6	1131.3	1129.5
x2 = 0.4004	1129.9	1128.5	–
x2 = 0.4964	1126	1124.6	1122
x2 = 0.5798	1122.3	1120.7	1117.8
x2 = 0.653	1118.6	–	1113.7
x2 = 0.7376	1114	1112.2	1108.4
x2 = 0.7812	1111.5	1109.5	1105.4
x2 = 0.8269	1108.5	1106.4	1102
x2 = 0.8772	1105.1	1102.8	1097.9
x2 = 0.9156	1102.2	1099.8	1094.4
x2 = 0.9539	–	1096.6	1090.9

CS(C)=O + CC[NH+](CC)CC.O=S(=O)([O-])O
x1 = 1
Conditions	mass density [kg/m3]
298.15 K	1095.4
303.15 K	1092.4
308.15 K	1086.1
